From publication PMC4336329 (PLoS ONE, 2015)
The whole screen tested about 310,000 compounds, of which about 2,200 (0.71%) showed an effect of 50% or more. The effect is printed as a negative number. Some of the results follow.

target: human ether-à-go-go-related gene (hERG) potassium channel (human, UniProt Q12809); test: primary screen, population patch clamp on CHO cells stably expressing hERG
Sequence (Q12809 whole entry, looked up): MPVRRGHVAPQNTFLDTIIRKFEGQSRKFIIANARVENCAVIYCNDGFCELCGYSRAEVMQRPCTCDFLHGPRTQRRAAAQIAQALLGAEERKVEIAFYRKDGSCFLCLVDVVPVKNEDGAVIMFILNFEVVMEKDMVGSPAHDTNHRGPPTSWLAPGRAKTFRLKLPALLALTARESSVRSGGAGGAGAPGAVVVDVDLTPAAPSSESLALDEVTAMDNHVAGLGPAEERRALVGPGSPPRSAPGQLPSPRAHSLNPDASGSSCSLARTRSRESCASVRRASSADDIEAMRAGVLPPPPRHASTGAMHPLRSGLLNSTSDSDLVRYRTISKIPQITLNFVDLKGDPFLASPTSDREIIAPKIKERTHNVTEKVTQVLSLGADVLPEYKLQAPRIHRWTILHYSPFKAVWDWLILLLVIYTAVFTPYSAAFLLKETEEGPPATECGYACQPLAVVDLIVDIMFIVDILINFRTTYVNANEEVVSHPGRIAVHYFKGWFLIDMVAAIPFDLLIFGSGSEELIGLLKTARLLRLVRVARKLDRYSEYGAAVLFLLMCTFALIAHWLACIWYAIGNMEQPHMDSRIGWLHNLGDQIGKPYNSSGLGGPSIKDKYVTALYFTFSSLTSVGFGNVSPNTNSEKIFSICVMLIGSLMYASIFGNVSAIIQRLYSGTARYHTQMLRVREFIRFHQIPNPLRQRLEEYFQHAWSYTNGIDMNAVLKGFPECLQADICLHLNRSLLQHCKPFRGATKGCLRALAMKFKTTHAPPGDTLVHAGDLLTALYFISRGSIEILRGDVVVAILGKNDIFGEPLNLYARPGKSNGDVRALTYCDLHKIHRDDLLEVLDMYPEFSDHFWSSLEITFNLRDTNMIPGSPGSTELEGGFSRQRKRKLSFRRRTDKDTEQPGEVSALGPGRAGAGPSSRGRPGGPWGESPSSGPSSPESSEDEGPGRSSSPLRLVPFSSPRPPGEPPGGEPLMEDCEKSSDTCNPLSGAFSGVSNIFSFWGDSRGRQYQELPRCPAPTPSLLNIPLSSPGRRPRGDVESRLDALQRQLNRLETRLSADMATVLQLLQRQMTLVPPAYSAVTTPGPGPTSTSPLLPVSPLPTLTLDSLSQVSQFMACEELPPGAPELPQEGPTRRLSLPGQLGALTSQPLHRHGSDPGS

Structure (SMILES) | hERG current change (%, negative = inhibition) at 1uM
CCn1c(/C=C/c2c[nH]c3ccccc23)nc2ccccc2c1=O | 13.1%
CC1CCN(c2ccc([N+](=O)[O-])cc2C(=O)NCC2CCCO2)CC1 (centres unmarked) | 5.42%
CCCc1nc2ccccc2n1C(=S)SC | 5.56%
CCOc1ncccc1C(=O)N(CC)CC(=O)NCc1ccc(F)cc1 | 11.6%
CCC(C)(C)n1nnnc1C(c1ccccn1)N1CCOCC1 (centres unmarked) | 7.25%
CC(C)CCNC(=O)c1cc(C(=O)c2cc(Br)ccc2O)cn(CCC(C)C)c1=O | 15.7%
COc1ccc(CN2C(=NC(=O)C3CCCO3)SC3CS(=O)(=O)CC32)cc1OC (centres unmarked) | 15.5%
CCOC(=O)c1cnc2c(-c3ccccc3OC)c(C)nn2c1C | 8.89%
CN(C)CCNC(=O)C(C(=O)c1ccccc1)n1ccccc1=O.Cl (centres unmarked) | 12.7%
CCOc1cc(S(=O)(=O)NCc2ccccn2)ccc1Cl | 6.33%
COc1ccccc1-c1nnc(SCC(=O)c2c(N)n(C3CC3)c(=O)[nH]c2=O)n1C | 10.8%
COC(=O)Cn1cc(C(=O)C(F)(F)F)c2ccccc21 | 15.7%
Cc1cccc(NC(=O)c2ccc(NC(C)c3ccccc3)c([N+](=O)[O-])c2)n1 (centres unmarked) | 10%
COc1ccccc1-c1nn(-c2ccccc2)cc1C(=O)N1CCN(C(=O)c2ccco2)CC1 | -2.77%
Cl.OCCCCCNc1ncnc2ccccc12 | 5.49%
NNC(=O)CN1CCN(c2ncc(C(F)(F)F)cc2Cl)CC1 | 6.48%
Cc1cccc(C(=O)Nc2ccc(C(=O)c3ccccc3)cc2)c1 | 7.65%
COC(=O)Cc1cc(=O)oc2cc(OC)ccc12 | 7%
Cc1ccc(S(=O)(=O)N2CCOCC2)cc1C(=O)Nc1ccncc1 | -11.3%
CC(=O)OCC1=C(C(=O)O)N2C(=O)C(NC(=O)c3ccc(COc4cccc(Cl)c4Cl)o3)C2SC1 (centres unmarked) | 12.5%
Cc1onc(-c2ccccc2)c1C(=O)OCc1nnc(-c2ccccc2)o1 | 5.73%
COc1ccc(C(=O)Nc2ccnn2C2CCN(Cc3ccc4nonc4c3)CC2)cc1 | -0.334%

Structure (SMILES) | hERG current change (%, negative = inhibition) at 1uM
O=S(=O)(/N=C(/c1ccc(Cl)cc1)N1CCOCC1)c1ccc(Cl)cc1 | 4.89%
Fc1ccc(-c2nnc(CN3CCN(c4ncc(C(F)(F)F)cc4Cl)CC3)o2)cc1 | -6.39%
Cc1ccsc1/C=C(\C#N)C(=O)NCc1cccnc1 | -1.62%
CSCCC(NS(=O)(=O)c1ccc(C)cc1)C(=O)NCCc1c[nH]c2ccccc12 (centres unmarked) | 8.53%
CSc1nc(N(C)NC(=O)c2ccc(Cl)cc2)c2ccccc2n1 | -0.805%
Cc1cccc(OCc2nnc(SCC(=O)N3c4ccccc4CCc4ccccc43)o2)c1 | 5.88%
CCNc1nc(OCCNS(=O)(=O)c2cc(C)ccc2C)nc(N(C)C)n1 | 7.78%
CC(NC(=O)c1cccc(S(=O)(=O)N2CCN(C)CC2)c1)c1ccc(Cl)cc1Cl (centres unmarked) | 5.66%
COc1ccc(CCNc2nc(C)nc3c2oc2ccccc23)cc1OC | 12.4%
O=C(NCCCN1CCCC1=O)NC1CCCCC1 | 7.21%
O=C(Nc1ccccc1C(=O)N1CCN(CCO)CC1)c1cccc([N+](=O)[O-])c1 | 16.1%
C=CCn1c(SCC(=O)N2N=C(c3ccco3)CC2c2ccco2)nnc1-c1ccncc1 (centres unmarked) | -9.35%
Cc1ccc(-c2csc(N(CCO)CCCn3c(C(F)(F)F)nc4ccccc43)n2)cc1 | 13.2%
CCOC(=O)Nc1ccc2c(c1)N(C(=O)CCN(C)C)c1ccccc1CC2 | -7.48%
COC(=O)C1CCN(C(=O)COC(=O)c2cc(-c3cccs3)nn2-c2ccccc2)CC1 | 2.56%
O=C(CN1C(=O)c2ccccc2S1(=O)=O)N1CCCCC1 | 15.2%
CCOC(=O)N1CCN(C(=O)C2CCCN(S(=O)(=O)c3c(C)cc(C)cc3C)C2)CC1 (centres unmarked) | 6.76%
O=C(CCC1N=C2c3ccccc3N=C(SCc3ccc(Cl)cc3)N2C1=O)NCc1ccco1 (centres unmarked) | 2.6%
CCn1c2ccc(OC)cc2c2nc3ccccc3nc21 | 0.563%
CN(C)c1cc(-c2ccc(C#N)cc2)oc(=O)c1Cl | -20.3%
COc1cccc2c1Oc1cc([N+](=O)[O-])cc(N(C)C(C)=O)c1C=C2 | 15.2%
O=C(COC(=O)CNC(=O)c1ccc2c(c1)OCO2)Nc1ncc(Cl)cc1Cl | -5.37%

Structure (SMILES) | hERG current change (%, negative = inhibition) at 1uM
O=C(Nc1ccccc1OC(F)F)c1cccc(S(=O)(=O)N2CCCC2)c1 | 9.81%
Cc1cc(N2CCN(c3ccccn3)CC2)n2nc(C)nc2n1 | -15.8%
O=C(Cn1cc2c(n1)CCCCC2)N1CCc2ccccc21 | 12.6%
CN(CC(=O)Nc1ccc(F)cc1)C(=O)COC(=O)Cc1cccs1 | -4.63%
O=S(=O)(c1ccccc1F)N1CCN(Cc2cc3c(cc2Br)OCCO3)CC1 | 10.6%
CCOCCCn1c(SCC(=O)NC(C)C)nc2ccccc2c1=O | 2.33%
Cc1cc(C)cc(NC(=O)Nc2cccc(S(N)(=O)=O)c2)c1 | -10.8%
Cc1nc(-c2ccccc2)sc1C1(C)CC(c2ccccc2F)=NO1 (centres unmarked) | 1.3%
CCCC(=O)Nc1cc(C(F)(F)F)ccc1N1CCOCC1 | 10.2%
Cc1ccc(OCCn2ccnc2)c([N+](=O)[O-])c1 | 8.99%
O=C(c1cc(COc2ccc(F)cc2F)on1)N1CCSCC1 | 6.36%
COc1cc2c(=O)n(CC3CCCO3)c(=O)n(CC(=O)Nc3ccccc3)c2cc1OC (centres unmarked) | 6%
CCc1ccc(OCC(=O)Nc2ccc3c(c2)OCCO3)cc1 | 7.23%
C=C[C@]1(C)C[C@@H](OC(=O)CSCCN(CC)CC)[C@]2(C)C(C)CC[C@]3(CCC(=O)[C@H]32)[C@@H](C)[C@@H]1O (some centres unmarked) | -9.71%
CC[N+]12CCC(CC1)C(C(O)(c1ccccc1)c1ccccc1)C2.[Br-] (centres unmarked) | 7.76%
Cc1ccc(C(=O)CSc2nnc(N)s2)c(C)c1 | 0.686%
O=C(Nc1ccc(Oc2cccnc2)cc1)c1ccccc1Cl | 1.83%
CCC(=NCc1ccco1)c1c(O)n(-c2ccccc2)c(=O)[nH]c1=O | 15.5%
CN(C(=O)COC(=O)CN1C(=O)c2ccccc2C1=O)c1c(N)n(Cc2ccccc2)c(=O)[nH]c1=O | 4.14%
O=C(Nc1nnc(-c2ccco2)o1)c1ccc(S(=O)(=O)N2CCOCC2)cc1 | 15.2%
CCCCNC(=S)NNC(=O)c1cc(C2CC2)nc2ccccc12 | 13.2%
Clc1ccc(CSc2ccc(-c3cccnc3)nn2)cc1 | 3.5%

Structure (SMILES) | hERG current change (%, negative = inhibition) at 1uM
C#CCCOC(=O)N1C2=NC(C(=O)OC)=C(C(=O)OC)[C@@H]3N(C)c4ccccc4[C@]23C[C@H]1C(=O)OC | 7.39%
C=CCN(c1ccccc1)S(=O)(=O)c1cccc2cccnc12 | 13.6%
CN(C)/C=C1\C(=O)NN=C1c1ccccc1 | 0.298%
C/C(=C1/C(=O)N(c2ccc([N+](=O)[O-])cc2)N=C1c1ccccc1)N(C)C | -5.78%
CC(Oc1cc2oc(=O)c3c(c2cc1Cl)CCC3)C(=O)NC1CC(C)(C)NC(C)(C)C1 (centres unmarked) | 12.7%
COc1cc(C(=O)NCc2cn3cccc(C)c3n2)cc(OC)c1OC | 4.19%
C=CCn1c(O)c(C(CC)=NC(C)c2ccccc2)c(=O)[nH]c1=O (centres unmarked) | -4.33%
O=C(O)c1ccc2cccnc2n1 | 21.7%
COc1ccccc1CN1CN(S(=O)(=O)c2ccccc2)c2nc3ccccc3nc21 | 11%
CCOC(=O)C1(Cc2cccc(OC)c2)CCCN(Cc2c(C)nn(C(C)C)c2C)C1 (centres unmarked) | 4.85%
O=C(CN1C(=O)c2ccc([N+](=O)[O-])cc2C1=O)Nc1cc(S(=O)(=O)N2CCOCC2)ccc1Cl | -0.522%
C=CCc1cccc2cc(C(=O)NNC(=O)c3ccncc3)c(=O)oc12 | 18.7%
O=C(CN1CCOc2ccccc21)NC1CCCCCCC1 | 3.04%
COc1ccc(C(=O)Nc2cc(-c3ccccc3)nn2-c2ccccc2F)cc1 | -1.84%
CCOC(=O)C(CC)Sc1ccc2nnc(CCNS(=O)(=O)c3ccccc3)n2n1 (centres unmarked) | 3.33%
CC(=O)c1ccc(NC(=S)N2C(C)CCCC2C)cc1 (centres unmarked) | 7.22%
CCC(c1ccc(C)cc1)N1C(=O)C2C3CCC(O3)C2C1=O (centres unmarked) | 12.2%
CCOC(=O)c1c(NC(=O)COC(=O)Cn2cnc3c2c(=O)n(C)c(=O)n3C)sc(C)c1CC | 6.5%
Nc1ccc2nc(-c3cccs3)[nH]c2c1 | 14.4%
CC(Sc1nc2ccccc2c(=O)n1Cc1ccco1)C(=O)c1ccccc1 (centres unmarked) | -19.5%
